Experimental data from paper PMC6142691, “Cannabidiol enhances morphine antinociception, diminishes NMDA-mediated seizures and reduces stroke damage via the sigma 1 receptor” (Molecular Brain, 2018).

Molecular target: T1, sigma 1 receptor (σ1R), murine full-length (1–223), GST-free (mouse, UniProt O55242 1-223)
T1 construct: sigma 1 receptor, mouse, GenBank AF004927, full-length residues 1-223; amplified by RT-PCR from mouse brain RNA; also called recombinant σ1R; source: E. coli BL21 (KRX), purified (GStrap FF, cleaved on the column with ProTEV protease, ion exchange or electroelution); not shown: GST, N-terminal, cleaved
Assay: pull-down; GST-NR1 C-terminal fragment covalently attached to NHS-activated Sepharose 4FF; σ1R 100 nM (excess 1:3) in 200 μL 50 mM Tris-HCl pH 7.5, 0.2% CHAPS, 2.5 mM CaCl2; 20 min at RT, three washes; then 20 min with σ1R ligands (CBD, progesterone, BD1063, PPCC, PRE084, 4-IBP); bound σ1R detected by SDS-PAGE and immunoblot
Settings: both partners purified

B1: GST-tagged NMDAR NR1 subunit C-terminal sequence ([…]; last transmembrane residues plus cytosolic C0-C1-C2) (domain or fragment)
chain: not shown
notes: A TEV protease site lies between GST and the NR1 fragment; also called agarose-NR1; NR1 C1; source: E. coli BL21 (KRX), purified (GStrap FF); not shown: GST, N-terminal, kept
- binding result: binds
